About 2,200 (0.71%) of roughly 310,000 compounds showed an effect of 50% or more. The effect is printed as a negative number. This is one part of the list.
Biological target: human ether-à-go-go-related gene (hERG) potassium channel (human, UniProt Q12809)
Test: primary screen, population patch clamp on CHO cells stably expressing hERG

Chain of human ether-à-go-go-related gene (hERG) potassium channel (Q12809 whole entry, looked up): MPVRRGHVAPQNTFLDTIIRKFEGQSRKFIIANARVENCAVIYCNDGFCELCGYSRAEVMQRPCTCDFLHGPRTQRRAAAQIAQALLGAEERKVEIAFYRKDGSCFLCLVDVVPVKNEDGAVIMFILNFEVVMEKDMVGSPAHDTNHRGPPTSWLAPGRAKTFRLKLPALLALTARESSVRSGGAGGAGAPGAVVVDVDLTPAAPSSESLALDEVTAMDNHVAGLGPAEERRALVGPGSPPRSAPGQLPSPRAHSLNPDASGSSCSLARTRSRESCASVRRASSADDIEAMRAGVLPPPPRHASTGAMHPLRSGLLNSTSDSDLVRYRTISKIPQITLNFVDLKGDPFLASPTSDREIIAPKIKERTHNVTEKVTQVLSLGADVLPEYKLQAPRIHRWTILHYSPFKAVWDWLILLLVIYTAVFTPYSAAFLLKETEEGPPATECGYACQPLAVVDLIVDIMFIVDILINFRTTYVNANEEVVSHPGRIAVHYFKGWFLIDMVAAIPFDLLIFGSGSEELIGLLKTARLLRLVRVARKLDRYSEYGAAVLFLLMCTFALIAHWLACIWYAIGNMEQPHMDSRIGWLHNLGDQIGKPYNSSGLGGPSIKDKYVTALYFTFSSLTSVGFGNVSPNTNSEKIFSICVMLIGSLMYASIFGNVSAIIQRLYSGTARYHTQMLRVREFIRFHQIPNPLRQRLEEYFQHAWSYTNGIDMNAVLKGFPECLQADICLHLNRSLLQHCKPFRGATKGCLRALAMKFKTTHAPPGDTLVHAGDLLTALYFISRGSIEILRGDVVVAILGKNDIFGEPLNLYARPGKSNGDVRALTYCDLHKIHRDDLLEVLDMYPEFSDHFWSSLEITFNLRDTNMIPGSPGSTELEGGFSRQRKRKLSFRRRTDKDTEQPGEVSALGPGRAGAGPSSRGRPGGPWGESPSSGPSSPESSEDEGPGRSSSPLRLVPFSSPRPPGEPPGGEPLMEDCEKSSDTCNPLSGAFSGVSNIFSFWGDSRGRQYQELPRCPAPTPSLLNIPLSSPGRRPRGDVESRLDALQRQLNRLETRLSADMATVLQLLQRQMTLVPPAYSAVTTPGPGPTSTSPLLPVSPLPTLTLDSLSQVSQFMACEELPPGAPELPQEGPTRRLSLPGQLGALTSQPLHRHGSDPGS

Compound	hERG current change (%, negative = inhibition) at 1uM
COCCNC(=O)C(c1cccs1)N(Cc1cccs1)C(=O)Cn1nnc2ccccc21 (stereo not shown)	1.44%
O=C(NCCOC(=O)c1ccncc1)c1ccccc1	5.93%
CCCCN1C(=O)C(=Nc2cccc3cnccc23)c2ccccc21	2.92%
O=[N+]([O-])c1nn(-c2ccccc2)n(O)c1=NCc1ccc2c(c1)OCO2	7.34%
Cn1c2ccccc2c2c(C(=O)O)cn(C3CCCC3)c(=O)c21	3.19%
Cn1nc(CC(=O)NCCN2C(=O)CSC2=O)c2ccccc2c1=O	-11%
CC(CCc1ccccc1)NC(=O)c1ccncc1 (stereo not shown)	10.8%
O=C(NC(=O)N1CCN(c2ccc([N+](=O)[O-])cn2)CC1)c1ccccc1F	-10.8%
Cc1cc(C)c(NC(=O)CSc2nc3ccccc3c(=O)n2CCCN2CCOCC2)c(C)c1	-2.92%
Cc1cccc(NC(=O)c2cc(S(=O)(=O)N(C)c3ccc(F)cc3)ccc2Cl)n1	-11.1%
COc1ccc(S(=O)(=O)Nc2cccc(S(=O)(=O)N3CCCCCC3)c2)cc1	0.78%
CC(=O)Nc1ccc(OCC(=O)N2CCc3ccccc3C2)cc1	17%
CCc1ccc(NC(=O)NCc2cccnc2)cc1	7.5%
COc1cc(C2(c3ccc(O)c(OC)c3)C(=O)Nc3c(Br)cc(Br)cc32)ccc1O	20.4%
Cc1ccc(C(=O)CN(CCC(=O)O)S(=O)(=O)c2ccc([N+](=O)[O-])cc2)cc1	5.9%
CCOc1ccc(CNC(=O)C(C)n2nc(C)c3c(C)n(-c4ccccc4)nc3c2=O)cc1 (stereo not shown)	4.25%
CC1CCCCN1C(=O)CSCC(=O)Nc1nc(-c2cccs2)cs1 (stereo not shown)	10.4%
O=C(NC1CCCCC1)N(CCN1CCOCC1)Cc1cc2cc3c(cc2[nH]c1=O)OCCO3	2.23%
Cn1c(CCCNC(=O)c2cccs2)nc2ccccc21	7.01%
Cc1ccc(CNC(=O)C2C3C=CC(C3)C2C(=O)O)cc1 (stereo not shown)	6.82%
CC(CCc1ccccc1)NCc1ccc(Cl)cc1Cl.O=C(O)C(=O)O (stereo not shown)	10.1%
COc1ccc(-n2c(C)cc(-c3csc(NC(=O)c4ccc(S(=O)(=O)N(C)C)cc4)n3)c2C)cc1	12.3%
O=C(c1ccc([N+](=O)[O-])c(CS(=O)(=O)c2ccc(Cl)cc2)c1)N1CCCC1	-8.55%
O=C(Nc1nc(-c2cccs2)c(-c2ccccc2)s1)c1ccco1	10.7%
O=C(Cn1nc2n(c1=O)-c1ccccc1SC2)N/N=C/c1ccncc1	3.06%
CCOc1ccc(/C=C/c2nc(C#N)c(NCCCOC)o2)cc1	16.4%
CC(C)c1cc(CNC(=O)c2ccc(OC3CCN(Cc4ccccn4)CC3)cc2)on1	15.6%
COc1ccc(C(=O)Nc2ccc3[nH]ccc3c2)cc1OC	5.08%

Compound	hERG current change (%, negative = inhibition) at 1uM
Cc1ccc(-c2nc3ccccc3c(=O)n2NC(=S)N(C)C)cc1	12.3%
COc1ccccc1OCCNC(=O)CN(c1cccc(C)c1)S(=O)(=O)c1ccccc1	-7.19%
Cc1cccc(NC(=S)NC(=O)c2ccc(Br)o2)c1C	-11.8%
Br.COc1ccc(Nc2nc(-c3ccc(OC)cc3)cs2)cc1	8.46%
COc1ccc(Cl)cc1S(=O)(=O)N1CCCC(C(=O)NCC(N)=O)C1 (stereo not shown)	-2.92%
O=C(NCc1ccc2c(c1)OCO2)c1ccc(Br)cc1	5.47%
CN1C(=O)C2C[C@@]3(Br)c4ccccc4N(OOSc4ccccc4)[C@H]3N2C(=O)[C@@H]1Cc1ccccc1 (stereo partly shown)	9.7%
O=C1/C(=C/c2ccncc2)N2CCC1CC2	10.3%
O=C(O)Cn1c2c(c3ccccc31)CCCC2	13.7%
COc1ccc(/C=N/NC(=S)Nc2ccccc2)cc1COc1ccc(F)cc1	2.01%
COc1cc(C2c3[nH]c4ccccc4c3C[C@H]3C(=O)N(C4CC4)CC(=O)N23)ccc1OC(C)C (stereo partly shown)	9.23%
O=C(CSc1nc2c(sc3ccccc32)c(=O)n1Cc1ccccc1)NCC1CCCO1 (stereo not shown)	22.3%
O=C(Nc1cccc(-c2cn3cccnc3n2)c1)c1ccco1	9.68%
CC(C)(C)c1ccc(S(=O)(=O)NCC(=O)N2CCCC2)cc1	9.26%
Cc1cc(-c2ccccc2)nc(N(C)NC(=O)c2ccc(Cl)cc2)c1S(C)(=O)=O	-1.97%
O=S(=O)(c1ccc(F)cc1)c1nc(-c2ccco2)oc1Nc1ccccc1	2.1%
c1ccc2oc(C3=NNC(=NC4CC4)SC3)cc2c1	-19.1%
c1ccc(Cc2nn3c(Cn4cnc5ccccc54)nnc3s2)cc1	5.69%
NC(=O)c1ccccc1NCC(=O)c1ccc(F)cc1	-6.14%
Cc1ccccc1C(=O)c1cccn1CC(=O)NCc1ccc(Cl)cc1	12.4%
CC1=C(C)CC(C(=O)NCC(=O)c2ccccc2)C(C(=O)O)C1 (stereo not shown)	5.67%
CN(C)c1ccc(N/C=C/C(=O)c2ccccc2)cc1	9.42%
CCN(c1ccc(OC)cc1)S(=O)(=O)c1csc(C(N)=O)c1	14%
CCOc1ccc2c(c1)ncn2Cc1ccccc1	3.15%
O=C(c1ccco1)c1cc2c(ccc3ccccc32)oc1=O	15.1%
COc1ccc(OC)c(NC(=O)CNC(c2ccccc2)c2ccccc2)c1	12.8%
COc1ccc(NC(=O)c2nn(C)c(=O)c3ccccc23)cc1S(=O)(=O)Nc1ccccc1Cl	13%
